Among all 52,000 compounds or so, about 4,300 (8.3%) were called active. Cut-off read from the data, not from the text of the source: active = survival mostly below about 52% (no sharp cut-off); inactive = mostly above about 56%. Some of the results follow.

This experiment relates to DeltatarO mutant. In words: S. aureus survival, RN4220 and DeltatarO strains – OD600, teichoic acid synthesis inhibitors, primary screen (AID 463173). As to conditions: S. aureus RN4220 wild type/DeltatarO growth, OD600, 18 h, active compounds read low, screened at 18.75 µg/mL (by protocol).
In the case of `CCOc1ccc(NC(=O)Cn2ncc3c2-c2cc(C)ccc2OC3)cc1`, the survival is inactive: 73%.
With `CCc1ccc(NC(=O)N2CCOc3ccc(Cl)cc32)cc1`, the survival was inactive: 65%.
Take `COC(=O)c1ccc(NC(=O)CC2C(=O)N(c3cccc(OC)c3)C(=O)N2Cc2cccs2)cc1` (centres undefined): the survival was inactive: 91%.
The value for `Cc1ccc(-c2nc(NC(=O)CSc3cc(C)c4ccccc4n3)ns2)cc1` was inactive: 65%.
As to `Cc1cc(C)c(NC(=O)c2cc(S(=O)(=O)N3CCC4(CC3)OCCO4)ccc2F)c(C)c1`, the survival was inactive: 77%.
The same measure for `O=C(NCc1ccccc1)c1ccc(CNS(=O)(=O)c2ccc(Br)cc2)cc1`: inactive: 80%; for `COc1ccccc1CNS(=O)(=O)c1ccc2c(c1)CC(C)N2C(C)=O` (centres undefined): inactive: 71%; for `O=C(Cc1cccs1)NCCCc1ccccc1`: inactive: 106%.
The value for `CC1CCN(S(=O)(=O)c2ccc3c(c2)N(CC(=O)NC(C)c2ccccc2)C(=O)CS3)CC1` (centres undefined) was inactive: 74%; that for `CC(C)Cn1cc(NC(=O)N2CCN(c3cccc(Cl)c3)CC2)c2ccccc2c1=O` was inactive: 85%; that for `CCc1cccc(C)c1NS(=O)(=O)c1c(C(=O)N2CCC(C)CC2)c(C)n(C)c1C` was inactive: 81%.
`Cc1cc(Cl)ccc1OCC(=O)N=Nc1c(O)[nH]c(=O)[nH]c1=O`: the survival is inactive: 88%.
The value for `CCS(=O)(=O)n1nc(-c2ccco2)nc1N` was inactive: 108%.
`CCN(CCCNC(=O)Cn1ncc2c3ccccc3n(C)c2c1=O)Cc1ccccc1`: the survival was inactive: 92%.
As for `CCCSc1ncc(Cl)c(C(=O)Nc2ccc(S(=O)(=O)N(C)c3ccccc3)cc2)n1`, the survival was inactive: 54%.
Consider `COC(=O)c1ccc(C2c3c(-c4ccccc4O)n[nH]c3C(=O)N2Cc2cccnc2)cc1` (centres undefined), for which the survival is inactive: 72%.
Consider `COc1ccc(Cn2c(C(=O)O)c(CNCc3ccccc3F)c3ccc(OC)cc32)cc1`, for which the survival is inactive: 70%.
`CC1CCCN(C(=O)CSc2c3c(nc4cc(Cl)ccc24)CCCC3)C1` (centres undefined): the survival was active: -5%.
With `O=C(Nc1cc(-c2nc3cc(Cl)ccc3o2)ccc1Cl)c1ccco1`, the survival was active: 41%.
The value for `COc1cccc(C2C(C(=O)Nc3ccc(C)cc3C)=C(C)Nc3c(C(=O)Nc4ccccc4)cnn32)c1` (centres undefined) was inactive: 88%.
As for `O=C(Nc1nnc(S(=O)(=O)N2CCCc3ccccc32)s1)c1cccc(Cl)c1`, the survival is active: 3%.
On to `CCc1ccc(NC(=O)CSc2nc(=O)n(Cc3ccccn3)c3c2CCC3)cc1`, for which the survival is inactive: 95%.
For the compound `Clc1cccc(-c2ccc(CNCCSc3nnnn3-c3ccccc3)o2)c1`, the survival was active: 30%.
The value for `O=C(c1ccccc1)N1CCN(CCc2ccncc2)CC1` was inactive: 90%; that for `Cc1ccc2cc(C#N)c(SCC(=O)Nc3ccccc3)nc2c1` was inactive: 66%.
For `CC(=O)c1ccc(NC(=O)c2nc3ccccc3nc2N2CCCCC2)cc1`, the survival was inactive: 95%.
Take `COc1ccc(S(=O)(=O)Nc2cccc(-c3ccc(N4CCCC4)nn3)c2)c(OC)c1`: the survival is inactive: 92%.
As to `COc1ccc(OC)c(NS(=O)(=O)c2ccc3c(c2)C(C)(C)C(=O)N3C)c1`, the survival is active: 48%.
Turning to `COc1cc(Cl)c(C)cc1NC(=O)C1CCN(c2nc3ccccc3n3cccc23)CC1`, the survival is inactive: 56%.
As to `Cc1ccc(C)c(NC(=O)N2CCN(C(=O)c3nsc4ccccc34)CC2)c1`, the survival is inactive: 89%.
Consider `COc1cccc(CNC(=O)c2ccc3c(c2)c(C)c(C)n3Cc2ccccc2)c1`, for which the survival is inactive: 90%.
For `COc1ccc(CNC(=O)c2cc3cc4cc(OC)ccc4nc3o2)cc1`, the survival is inactive: 81%.
For the compound `Cc1nnc(N2CCC(C(=O)NC3CCCCC3)CC2)c2nn(-c3ccccc3)c(C)c12`, the survival is inactive: 82%.
Take `NC(=O)C1CCN(C(=O)c2ccc(NC(=O)c3nsc4ccccc34)cc2)CC1`: the survival was inactive: 86%.
The value for `CCOc1ccccc1N(CC)C(=O)Cn1ncc2c([nH]c3ccccc32)c1=O` was active: 46%.
In the case of `CCOc1ccc(CCNC(=O)c2cnc3c(-c4ccc(F)cc4)c(C)nn3c2C)cc1OCC`, the survival is inactive: 134%.
On to `Cc1ccc(NC(=O)Cn2c(=O)n(Cc3ccco3)c(=O)c3sc4ccccc4c32)cc1C`, for which the survival was inactive: 133%.
On to `COc1ccc2c(c1)sc1ncc(C(=O)NCc3ccc(OC(C)C)cc3)c(=O)n12`, for which the survival is inactive: 77%.
On to `O=C(NCCc1ccc(Cl)cc1)c1cnc2sc(N3CCCCC3)nn2c1=O`, for which the survival is inactive: 101%.
Turning to `COc1ccc(-c2cc(C(F)(F)F)nc(SCCC(=O)Nc3cc(C)ccc3O)n2)cc1`, the survival was inactive: 54%.
The value for `COC(=O)CNC(=O)c1c(-c2ccccc2)noc1C` was inactive: 104%; that for `CC(C)C(=O)Nc1cccc(S(=O)(=O)c2cccc(NC(=O)C(C)C)c2)c1` was inactive: 75%.
As for `CCc1ccc(-c2[nH]c3c(c2-c2sc(C)c(C(=O)OC)c2O)c(=O)[nH]c(=O)n3C)cc1`, the survival was active: 23%.
On to `CCOc1ccc(CCNC(c2cccc(Cl)c2)c2nnc(-c3ccccc3)o2)cc1OCC` (centres undefined), for which the survival was inactive: 95%.
With `Cc1coc2c(C)c3oc(=O)c(CCC(=O)NCCc4ccccc4)c(C)c3cc12`, the survival was inactive: 59%.
With `Cc1nn(C(=O)c2ccc(Br)cc2)c(C)c1S(=O)(=O)N1CCOCC1`, the survival is inactive: 79%.
`COc1cccc(/C=C/c2nc(C#N)c(NCCc3ccc(OC)c(OC)c3)o2)c1`: the survival is active: 41%.
The same measure for `Cn1c(NCCO)nc2c1c(=O)n(Cc1cccc(F)c1)c(=O)n2C`: inactive: 70%; for `CCCCN1C(=O)C(O)(c2c[nH]c3ccccc23)c2cc(Br)ccc21` (centres undefined): inactive: 50%.
With `CCCCN(CCCC)S(=O)(=O)c1ccc2oc(C(=O)NCc3ccc(C)cc3)c(C)c2c1`, the survival was inactive: 83%.
As to `CCn1c(=O)c(C(=O)Nc2ccc(C(C)=O)cc2)nc2ccccc21`, the survival is inactive: 81%.
As for `COc1cc(NC(=O)c2cccc3c2C(=O)N(C2CCCCC2)C3)cc(OC)c1`, the survival is inactive: 90%.
On to `O=C(Cn1c(=O)oc2ccccc21)Nc1ccc(C(=O)O)cc1`, for which the survival is inactive: 76%.
For the compound `CCOc1ccccc1NC(=O)CSc1nc2cc(OC)c(OC)cc2c2nc(-c3ccccc3)nn12`, the survival is inactive: 69%.
Consider `CCCC(C(=O)NC1CCCC1)N(C(=O)Cn1nnc(-c2ccc(C)o2)n1)c1ccccc1` (centres undefined), for which the survival is inactive: 89%.
On to `Oc1c(C(c2ccc(Cl)cc2)N2CCC3(CC2)OCCO3)sc2nc(-c3ccco3)nn12` (centres undefined), for which the survival was active: 32%.
Consider `O=C1CN=C(Nc2ccccc2)N1c1ccccc1`, for which the survival is inactive: 100%.
Consider `COC(=O)c1sc(NC(=O)c2ccco2)c(C#N)c1C`, for which the survival was inactive: 82%.
In the case of `O=C(NC1CCCCC1)C(c1ccccn1)N(C(=O)Cn1nnc(-c2ccccc2)n1)c1ccc2c(c1)OCO2` (centres undefined), the survival is inactive: 98%.
`CC1CCCCN1S(=O)(=O)c1ccc(C(=O)Nc2sc3c(c2C(N)=O)CC(C)(C)NC3(C)C)cc1` (centres undefined): the survival is inactive: 67%.
For `Cc1ccc(NC(=O)CCS(=O)(=O)c2cccc3nonc23)cc1Cl`, the survival is inactive: 71%.
`Cc1ccccc1Nc1c(-c2ccco2)nc2c(C)cccn12`: the survival is active: 25%.
The same measure for `Cc1n[nH]c(C)c1S(=O)(=O)N(CC(=O)Nc1ccc(C(F)(F)F)cc1)c1ccc(C(C)C)cc1`: active: 46%; for `Cc1ccc(CS(=O)(=O)c2ncc(Cl)c(C(=O)Nc3nc4ccc(C)cc4s3)n2)cc1`: active: 6%.
The value for `NCCS(=O)(=O)N1CCCC1` was inactive: 88%; that for `Cc1ccc(C)c(CN2C(=O)c3ccccc3S(=O)(=O)c3ccc(C(=O)N4CCN(c5ccccc5)CC4)cc32)c1` was inactive: 79%.
With `C#CCSc1nc2sc3c(c2c(=O)n1Cc1ccccc1)CCCC3`, the survival was active: 33%.
Consider `CCOCCc1nn2c(=O)cc(COC(=O)c3ccccc3NC(=O)C3CCCCC3)nc2s1`, for which the survival was inactive: 102%.
`O=C(NCCn1cc(SCc2ccc(Cl)cc2)c2ccccc21)c1cccs1`: the survival is inactive: 62%.
On to `COc1cccc(-c2nc(SCC(=O)Nc3ccc4c(c3)OCCO4)c(-c3ccccc3)[nH]2)c1`, for which the survival was inactive: 54%.
The same measure for `COc1cc(OC)c(N(C)C(=O)CCNC(=O)Cn2cnc3ccccc3c2=O)cc1Cl`: inactive: 70%; for `CCN(CC)C(=O)C1CCN(Cc2ccccc2F)CC1`: inactive: 99%; for `Cc1cccc(NC(=O)Cn2c(=O)n(CCCS(=O)(=O)C3CCCCC3)c(=O)c3ccccc32)c1`: inactive: 71%.
The same measure for `CCCCN(CCCC)CCNC(=O)Cn1nc(CC)n2c(cc3sc(C)cc32)c1=O`: inactive: 85%.
For `O=S1(=O)c2ccccc2N(Cc2cccc(C(F)(F)F)c2)c2ccccc21`, the survival was inactive: 95%.
As to `CCOC(=O)c1ccc(-n2c(C)nc3c(cnn3-c3ccc(Cl)cc3)c2=O)cc1`, the survival is inactive: 67%.
Consider `CCOCCCNC(=O)c1[nH]c2cc(C)ccc2c1Sc1ccc(Cl)cc1`, for which the survival is inactive: 85%.
On to `Cc1ccc(-c2onc(C)c2C)cc1S(=O)(=O)N1c2ccccc2CC1C` (centres undefined), for which the survival was inactive: 79%.
With `COc1ccc(C(=O)N2c3ccccc3C(C)(c3ccc(Cl)cc3)CC2(C)C)cc1` (centres undefined), the survival was active: 11%.
Consider `COc1ccc(CCNC(=O)c2c(O)nc3c(C)cccn3c2=O)cc1`, for which the survival is inactive: 54%.
In the case of `Cc1cc(C)c2[nH]c(=O)c(CN(CCN3CCOCC3)C(=O)Nc3ccc(F)cc3)cc2c1`, the survival is inactive: 57%.
For `Cc1c(C)n(C)c2ccc(C(=O)NCCCN3CCCCC3C)cc12` (centres undefined), the survival is inactive: 107%.
Turning to `O=C(c1cc2c(s1)-c1ccccc1OC2)N1CCN(c2ccccc2F)CC1`, the survival was active: 41%.
The same measure for `Cc1ccc(C)c(NC(=O)Cn2cc(C(=O)c3ccco3)c3ccccc32)c1`: inactive: 64%.
The same measure for `CCCCN(CC)CCCNC(=O)c1nn(C)c2c1CS(=O)(=O)c1ccccc1-2`: inactive: 88%; for `CCOC(=O)C1CCCN(c2cc(C)nc3c(-c4ccccc4OC)c(C)nn23)C1` (centres undefined): inactive: 102%.
In the case of `COc1cccc(Cn2c(CNC(=O)Cc3cccc(C)c3)nc3cccnc32)c1`, the survival was inactive: 88%.
Take `COc1ccc(OCC2Cn3c(nc4c3c(=O)n(C)c(=O)n4C)O2)cc1` (centres undefined): the survival was inactive: 79%.
With `CC(C)N(C(=O)CSc1nnc(NC(=O)c2ccco2)s1)C(C)C`, the survival is inactive: 50%.

For the origin of these results see PubChem BioAssay AID463173 (ICCB-Longwood Screening Facility, Harvard Medical School, 2010).
